# PubChem BioAssay AID624170 (National Center for Advancing Translational Sciences (NCATS), 2012)
# “And” between values parts separate entries of the source, which are not always exact repeats. Equal values may be shown once. Out of some 410,000 compounds screened, about 850 (0.21%) were called active. Inconclusive means that the source gave no clear call. Such entries were picked first, then a sample of the others. The call rests on the fitted dose curve; in most records, active means well fitted inhibition curve with a large enough effect; inconclusive means small, poorly fitted or top-dose-only effect, or another doubt; inactive means no such curve, though single readings can be large or run the other way. Potencies of inconclusive entries are doubtful fits and often do not repeat.
# Molecular target: Glutaminase kidney isoform, mitochondrial (Homo sapiens) (UniProt O94925)
# Chain of UniProt O94925 (O94925 whole entry, looked up, canonical isoform): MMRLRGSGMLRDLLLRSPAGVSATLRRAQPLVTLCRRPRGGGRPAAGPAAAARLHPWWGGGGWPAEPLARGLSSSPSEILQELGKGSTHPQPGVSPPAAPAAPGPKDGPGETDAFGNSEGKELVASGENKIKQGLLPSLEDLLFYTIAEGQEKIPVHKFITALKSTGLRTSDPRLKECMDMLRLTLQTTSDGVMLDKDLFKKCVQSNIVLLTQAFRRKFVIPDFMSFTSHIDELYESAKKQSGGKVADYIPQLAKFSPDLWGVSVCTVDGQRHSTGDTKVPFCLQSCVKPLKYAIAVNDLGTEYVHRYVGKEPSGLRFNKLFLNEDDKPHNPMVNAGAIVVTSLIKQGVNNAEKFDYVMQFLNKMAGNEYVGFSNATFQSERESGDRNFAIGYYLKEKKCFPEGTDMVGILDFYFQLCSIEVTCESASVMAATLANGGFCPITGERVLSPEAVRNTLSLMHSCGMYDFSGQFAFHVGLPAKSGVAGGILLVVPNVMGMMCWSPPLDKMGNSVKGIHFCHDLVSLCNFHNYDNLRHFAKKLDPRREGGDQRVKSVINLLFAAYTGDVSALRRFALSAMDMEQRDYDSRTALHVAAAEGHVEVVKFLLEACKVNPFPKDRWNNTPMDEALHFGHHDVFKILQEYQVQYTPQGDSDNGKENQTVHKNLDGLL
# Assay: qHTS for Inhibitors of Glutaminase (GLS)
# Settings: GLS enzymatic activity, qHTS titration; series mostly up to 45.5 µM; activity change, negative = inhibition: at the top concentration
# In short: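 Human kidney-isoform GLS in 45 mM KH2PO4 pH 8.2, 0.02% Tween-20, with compound, started with 1mM L-Glutamine (added stock). Glutamate oxidase/HRP/Amplex red coupled fluorescence read at start and after 30 min at RT.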
# On the % scale 0 is the no-effect control and ±100 the full control effect; potency means the concentration at half of the fitted maximal effect; tags describe the fitted curve by direction and shape.
Compound,Potency,"activity change, negative = inhibition"
O=[N+]([O-])c1ccc(NN=Cc2ccc(O)cc2)nc1,"inconclusive: 35.5 µM [inhibitor, single point]",–
CCCCN(CC)CCCNC(=S)Nc1ccc2nc(N3CCN(CC)CC3)cc(C)c2c1,"inconclusive: 7.08 µM [inhibitor, partial curve]",–
Cn1c(NCC2CCCO2)nc2c1c(=O)n(Cc1ccccc1)c(=O)n2C (centres undefined),"inconclusive: 35.5 µM [inhibitor, single point]",–
CC(NCC(=O)Nc1ccccc1C(=O)NC1CC1)c1cccs1 (centres undefined),"inconclusive: 35.5 µM [inhibitor, partial curve, poor fit]",–
CCCc1cc(C(=O)NNC(=S)NCC2CCCO2)cs1 (centres undefined),"inconclusive: 35.5 µM [inhibitor, single point]",–
Cc1ccc(C2=N/C(=C\c3cccs3)C(=O)N2Nc2ccccc2)cc1,–,inactive: 6.94%
CCCN(CCC)C(=O)Cn1c(=O)n(Cc2ccc(C(=O)NCCc3ccc(OC)c(OC)c3)cc2)c(=O)c2ccccc21,"inconclusive: 22.4 µM [inhibitor, partial curve, poor fit]",–
CCOc1ccc(NC(=S)NNC(=O)CC(C)O)cc1 (centres undefined),"inconclusive: 11.2 µM [inhibitor, partial curve]",–
O=[N+]([O-])c1ccccc1CN1CCN(Cc2ccc3ccccc3c2)CC1,–,inactive: 7.01%
Oc1ccc(N2CCN(Cc3c(-c4ccccc4)nc4ccccn34)CC2)cc1,"inconclusive: 2.51 µM [inhibitor, partial curve, poor fit]",–
CNC(=O)C(=O)Nc1c(O)c2ccccc2[nH]c1=O,"inconclusive: 35.5 µM [inhibitor, single point]",–
O=C(O)CCCCCn1c(SCC(=O)c2ccc(O)c(O)c2)nc2ccsc2c1=O,–,inactive: 38.9%
COC(=O)c1nc2n(n1)C(c1cccc(Cl)c1)C1=C(CC(C)(C)CC1=O)N2 (centres undefined),–,inactive: 9.16%
CC1(C2CC(=O)c3c(O)ccc(O)c3C2)OCCO1 (centres undefined),"inconclusive: 35.5 µM [inhibitor, single point]",–
C=CCC[C@@H](Cc1ccc(F)cc1)C(=O)OC[C@H](C)NC(=O)[C@H](CC=C)CC(=O)N(CCO)Cc1ccccc1,"inconclusive: 35.5 µM [inhibitor, single point]",–
Cc1cccc(-c2nc3c(C#N)c[nH]n3c2NC2CCCCC2)c1,"inconclusive: 11.2 µM [inhibitor, partial curve]",–
Cc1nn(-c2ccc3nncn3n2)c(C)c1CCC(=O)Nc1ccc(OC(F)(F)F)cc1,–,inactive: 5.93%
Cc1c(C(=O)NCc2ccc(C#N)cc2)sc(=O)n1Cc1ccccn1,–,inactive: -5.93%
O=C(Nc1nncs1)c1cccc(S(=O)(=O)N2CCc3ccccc32)c1,"inconclusive: 31.6 µM [inhibitor, single point]",–
O=C(NNc1ncccc1Cl)c1c(Cl)cccc1Cl,"inconclusive: 11.2 µM [inhibitor, single point]",–
CC(C(=O)Nc1ccccc1C(=O)N1CCOCC1)N(c1ccc(Cl)cc1)S(C)(=O)=O (centres undefined),"inconclusive: 35.5 µM [inhibitor, single point]",–
Cc1ccc(C(=O)Nc2sc3c(c2C(=O)O)CCCC3)o1,–,inactive: -3.54%
CCOc1ccc(NC(=O)c2ccc3c(SCC(=O)O)c4c(nc3c2)CCCC4)cc1,inactive,–

Compound,Potency,"activity change, negative = inhibition"
CC1CC(C)CN(C(C)C(=O)Nc2cc(S(=O)(=O)N3CCCCC3)ccc2Cl)C1 (centres undefined),"inconclusive: 0.0891 µM [inhibitor, full curve, poor fit]",–
O=C(NCN1CCc2ccccc2C1)c1ccccc1,–,inactive: 8.97%
CCOc1ccc(-c2cc(C(=O)NCCCN3CCOCC3)c3ccccc3n2)cc1,–,inactive: -10.1%
Brc1ccc2nc(C3CCCCC3)c(CC3CCCCC3)n2c1,"inconclusive: 0.501 µM [inhibitor, partial curve, poor fit]",–
CCCCCCCCCCCCCCCC[N+](C)(C)CCN(Cc1ccc(OC)cc1)c1ncccn1,"inconclusive: 14.1 µM [inhibitor, single point] and inconclusive: 28.2 µM [inhibitor, single point]",–
COc1ccc(N2C(=O)CN(Cc3cc(OC)c(OC)c(OC)c3)C2=S)cc1,"inconclusive: 11.2 µM [inhibitor, partial curve, poor fit]",–
Cc1ccc(-c2cc(C(=O)Nc3ccc(S(=O)(=O)Nc4ncccn4)cc3)[nH]n2)c(O)c1C,"inconclusive: 15.8 µM [inhibitor, single point]",–
COc1ccc(Cl)cc1Nc1sc(C(=O)c2ccccc2)c(N)c1C(=O)Nc1ccccc1,–,inactive: 2.17%
Cc1cc(Cl)cc2sc(=S)[nH]c12,"inconclusive: 15.8 µM [inhibitor, single point]",–
Cn1c(=O)c2c(n(Cc3ccccc3)c1=O)NC(=O)C2CC(=O)O (centres undefined),"inconclusive: 12.6 µM [inhibitor, partial curve]",–
CCN1/C(=C2\C(=O)N(C)C(=S)N2c2ccccc2)C=Cc2ccccc21,"inconclusive: 17.8 µM [inhibitor, single point]",–
CC(C)Oc1ccc(C(=O)NC2=NCCS2)cc1,"inconclusive: 22.4 µM [inhibitor, single point]",–
CCN1C(=O)/C(=C2\SC(=S)N(NC(=O)c3ccccc3O)C2=O)c2ccccc21,"inconclusive: 20 µM [inhibitor, single point]",–
Cc1ccc(-c2csc3nc[nH]c(=S)c23)cc1C,"inconclusive: 15.8 µM [inhibitor, single point]",–
Cc1ccnc(NC(=S)N2CCN(c3cccc(C(F)(F)F)c3)CC2)c1,"inconclusive: 8.91 µM [inhibitor, partial curve, poor fit]",–
CSc1ccccc1C(=O)Nc1ccccc1C(=O)NC(C)C,active: 31.6 µM,–
COc1ccccc1N1CCN(/N=C/c2ccc(O)c(O)c2)CC1,"inconclusive: 35.5 µM [inhibitor, single point]",–
O=S1(=O)N=C(N(CCO)/N=C/C=C/c2ccccc2)c2ccccc21,"inconclusive: 3.98 µM [inhibitor, single point]",–
CN(C)CC#Cc1cncc(C(=O)NNC(=O)Nc2ccc(Cl)cc2)c1,"inconclusive: 11.2 µM [inhibitor, partial curve]",–
Cc1ccc(S(=O)(=O)c2c(C)cc(C)nc2Cl)cc1,active: 11.2 µM,–
O=c1[nH]c(CSc2nnnn2-c2ccc(Cl)cc2)nc2ccccc12,"inconclusive: 3.55 µM [inhibitor, single point]",–
CCOc1ccc(NC(=O)Cn2c(=O)n(-c3cccc(Cl)c3)c(=O)c3c2c2cc(C)ccc2n3C)cc1,–,inactive: -2.98%
CCOc1ccccc1NCc1cc(=O)oc2cc(C)ccc12,–,inactive: -14.4%

Compound,Potency,"activity change, negative = inhibition"
COc1ccc(NC(=O)CC2Nc3ccccc3NC2=O)cc1 (centres undefined),"inconclusive: 25.1 µM [inhibitor, single point]",–
CCc1ccc(/C=C2\SC(=S)N(CCCC(=O)N(CCO)c3ccccc3)C2=O)cc1,–,inactive: 17.3%
Cc1ccc(S(=O)(=O)Nc2ccc(O)c3cccnc23)cc1,"inconclusive: 35.5 µM [inhibitor, single point]",–
CCOCCCNC(=O)/C(C#N)=C/c1ccc(Cl)c([N+](=O)[O-])c1,"inconclusive: 35.5 µM [inhibitor, single point]",–
Cc1ccc(CNC(=O)c2c(-c3ccc(Br)cc3)noc2C)o1,–,inactive: 9.71%
CCCCCCCCCCCCCCCC[n+]1cccc2ccccc21,"inconclusive: 25.1 µM [inhibitor, single point]",–
Cc1cc(C)c2c(=O)[nH]n(C(C)C)c2n1,"inconclusive: 12.6 µM [inhibitor, single point]",–
COCCNC(=S)N/N=C(\C)c1ccc(Cl)c(Cl)c1Cl,"inconclusive: 0.562 µM [inhibitor, partial curve, poor fit]",–
COCc1ccc2oc(C(=O)O)cc2c1,"inconclusive: 35.5 µM [inhibitor, single point]",–
CN(C)c1ccc(N=Nc2ccccc2C(=O)OCC(=O)N(C)C2CCCCC2)cc1,–,inactive: 0.336%
CN(C)C(CNC(=O)c1cccc(S(=O)(=O)N(C)C)c1)c1ccccc1 (centres undefined),–,inactive: 4.33%
COc1ccc(C=O)cc1COc1ccc(F)cc1F,–,inactive: -3.83%
CCCCNC(=O)CCCN1C(=O)CCn2nc(-c3cccn3C)cc21,–,inactive: -9.36%
Cc1c(C(=O)NNS(=O)(=O)c2ccccc2Cl)sc(=S)n1C,"inconclusive: 11.2 µM [inhibitor, single point]",–
O=C(Nc1cccc(-c2nc3cccnc3s2)c1)C1c2ccccc2Oc2ccccc21,"inconclusive: 11.2 µM [inhibitor, single point]",–
O=C(NCc1ccc2c(c1)OCO2)c1cc2ncc(Br)cn2n1,"inconclusive: 12.6 µM [inhibitor, partial curve]",–
O=C(O)c1cc2n(n1)C(C(F)(F)F)CC(c1ccco1)N2 (centres undefined),"inconclusive: 25.1 µM [inhibitor, single point]",–
Cc1nc(SCC(=O)Nc2nnc(C(C)C)s2)n[nH]1,"inconclusive: 35.5 µM [inhibitor, single point]",–
OCc1cn(-c2ccccc2)nc1-c1ccco1,–,inactive: 20.4%
CSc1cccc(NC(=O)COc2ccccc2)c1,"inconclusive: 35.5 µM [inhibitor, single point]",–
Cc1onc(-c2ccccc2Cl)c1C(=O)OCC(=O)N1CCCc2ccccc21,"inconclusive: 35.5 µM [inhibitor, single point]",–
CCOC(=O)Cc1csc(NC(=O)CCSc2ccccc2)n1,–,inactive: -0.502%
C=CCn1c(Oc2cc(C)ccc2C)nc2c1c(=O)n(C)c(=O)n2C,"inconclusive: 35.5 µM [inhibitor, partial curve, poor fit]",–
